Reference: the supplement of paper PMC10724272
MIC of invasive clinical C. tropicalis isolates, CLSI broth microdilution (fluconazole 0.12-256 mg/L, up to 1,024 for the azole-resistant cluster and its neighbour group; other ranges not stated); higher = less susceptible. Call: susceptible or wild type [S] / resistant or non-wild type [R] by CLSI breakpoints or cut-offs; intermediate and dose-dependent carry no call. '<=' and '>=' at the end values are inferred; the source marks only some of them. Isolates are numbered anew.

What was measured:
Test in all cases: CLSI broth microdilution.
micafungin = compound: CCCCCOc1ccc(-c2cc(-c3ccc(C(=O)N[C@H]4C[C@@H](O)[C@@H](O)NC(=O)[C@@H]5[C@@H](O)[C@@H](C)CN5C(=O)[C@H]([C@H](O)CC(N)=O)NC(=O)[C@H]([C@H](O)[C@@H](O)c5ccc(O)c(OS(=O)(=O)O)c5)NC(=O)[C@@H]5C[C@@H](O)CN5C(=O)[C@H]([C@@H](C)O)NC4=O)cc3)no2)cc1 [micafungin]
posaconazole = compound: CC[C@@H]([C@H](C)O)n1ncn(-c2ccc(N3CCN(c4ccc(OC[C@@H]5CO[C@@](Cn6cncn6)(c6ccc(F)cc6F)C5)cc4)CC3)cc2)c1=O [posaconazole]
flucytosine = compound: Nc1[nH]c(=O)ncc1F [flucytosine]
amphotericin B = compound: C[C@@H]1[C@H](O)[C@@H](C)/C=C/C=C/C=C/C=C/C=C/C=C/C=C/[C@H](O[C@@H]2O[C@H](C)[C@@H](O)[C@H](N)[C@@H]2O)C[C@@H]2O[C@](O)(C[C@@H](O)C[C@@H](O)[C@H](O)CC[C@@H](O)C[C@@H](O)CC(=O)O[C@H]1C)C[C@H](O)[C@H]2C(=O)O [amphotericin B]
caspofungin = compound: CC[C@H](C)C[C@H](C)CCCCCCCCC(=O)N[C@H]1C[C@@H](O)[C@@H](NCCN)NC(=O)[C@@H]2[C@@H](O)CCN2C(=O)[C@H]([C@H](O)CCN)NC(=O)[C@H]([C@H](O)[C@@H](O)c2ccc(O)cc2)NC(=O)[C@@H]2C[C@@H](O)CN2C(=O)[C@H]([C@@H](C)O)NC1=O [caspofungin]
itraconazole = compound: CCC(C)n1ncn(-c2ccc(N3CCN(c4ccc(OCC5COC(Cn6cncn6)(c6ccc(Cl)cc6Cl)O5)cc4)CC3)cc2)c1=O [itraconazole]
anidulafungin = compound: CCCCCOc1ccc(-c2ccc(-c3ccc(C(=O)N[C@H]4C[C@@H](O)[C@@H](O)NC(=O)[C@@H]5[C@@H](O)[C@@H](C)CN5C(=O)[C@H]([C@@H](C)O)NC(=O)[C@H]([C@H](O)[C@@H](O)c5ccc(O)cc5)NC(=O)[C@@H]5C[C@@H](O)CN5C(=O)[C@H]([C@@H](C)O)NC4=O)cc3)cc2)cc1 [anidulafungin]
voriconazole = compound: C[C@@H](c1ncncc1F)[C@](O)(Cn1cncn1)c1ccc(F)cc1F [voriconazole]
fluconazole = compound: OC(Cn1cncn1)(Cn1cncn1)c1ccc(F)cc1F [fluconazole]

Test System: Candida tropicalis isolate 51 (ERG11 copies: 2, Erg11p: no key change)
- MIC (micafungin): 0.03 mg/L [S]
- MIC (posaconazole): 0.06 mg/L [S]
- MIC (flucytosine): ≤ 0.06 mg/L [S]
- MIC (amphotericin B): 0.5 mg/L [S]
- MIC (caspofungin): 0.015 mg/L [S]
- MIC (itraconazole): 0.06 mg/L [S]
- MIC (anidulafungin): ≤ 0.015 mg/L [S]
- MIC (voriconazole): 0.06 mg/L [S]
- MIC (fluconazole): 0.5 mg/L [S]

Test System: Candida tropicalis isolate 52 (ERG11 copies: 2, Erg11p: Y132F, S154F (homozygous))
- MIC (micafungin): 0.03 mg/L [S]
- MIC (posaconazole): 1 mg/L [R]
- MIC (flucytosine): ≤ 0.06 mg/L [S]
- MIC (amphotericin B): 1 mg/L [S]
- MIC (caspofungin): 0.25 mg/L [S]
- MIC (itraconazole): 1 mg/L [R]
- MIC (anidulafungin): 0.12 mg/L [S]
- MIC (voriconazole): ≥ 8 mg/L [R]
- MIC (fluconazole): 256 mg/L [R]

Test System: Candida tropicalis isolate 53 (ERG11 copies: 2, Erg11p: no key change)
- MIC (micafungin): 0.03 mg/L [S]
- MIC (posaconazole): 0.06 mg/L [S]
- MIC (flucytosine): ≤ 0.06 mg/L [S]
- MIC (amphotericin B): 1 mg/L [S]
- MIC (caspofungin): 0.03 mg/L [S]
- MIC (itraconazole): 0.12 mg/L [S]
- MIC (anidulafungin): ≤ 0.015 mg/L [S]
- MIC (voriconazole): 0.06 mg/L [S]
- MIC (fluconazole): 1 mg/L [S]

Test System: Candida tropicalis isolate 54 (ERG11 copies: 2, Erg11p: no key change)
- MIC (micafungin): 0.03 mg/L [S]
- MIC (posaconazole): 0.25 mg/L [S]
- MIC (flucytosine): ≤ 0.06 mg/L [S]
- MIC (amphotericin B): 2 mg/L [S]
- MIC (caspofungin): 0.06 mg/L [S]
- MIC (itraconazole): 0.12 mg/L [S]
- MIC (anidulafungin): 0.06 mg/L [S]
- MIC (voriconazole): 0.12 mg/L [S]
- MIC (fluconazole): 2 mg/L [S]

Test System: Candida tropicalis isolate 55 (ERG11 copies: 2, Erg11p: Y132F, S154F (heterozygous))
- MIC (micafungin): 0.015 mg/L [S]
- MIC (posaconazole): 0.12 mg/L [S]
- MIC (flucytosine): ≤ 0.06 mg/L [S]
- MIC (amphotericin B): 1 mg/L [S]
- MIC (caspofungin): 0.03 mg/L [S]
- MIC (itraconazole): 0.25 mg/L [S]
- MIC (anidulafungin): ≤ 0.015 mg/L [S]
- MIC (voriconazole): 0.5 µg/mL
- MIC (fluconazole): 16 mg/L [R]

Test System: Candida tropicalis isolate 56 (ERG11 copies: 2, Erg11p: Y132F, S154F (heterozygous))
- MIC (micafungin): 0.03 mg/L [S]
- MIC (posaconazole): 1 mg/L [R]
- MIC (flucytosine): ≤ 0.06 mg/L [S]
- MIC (amphotericin B): 0.5 mg/L [S]
- MIC (caspofungin): 0.06 mg/L [S]
- MIC (itraconazole): 1 mg/L [R]
- MIC (anidulafungin): 0.12 mg/L [S]
- MIC (voriconazole): ≥ 8 mg/L [R]
- MIC (fluconazole): > 256 mg/L [R]

Test System: Candida tropicalis isolate 57 (ERG11 copies: 2, Erg11p: no key change)
- MIC (micafungin): 0.03 mg/L [S]
- MIC (posaconazole): 0.25 mg/L [S]
- MIC (flucytosine): ≤ 0.06 mg/L [S]
- MIC (amphotericin B): 1 mg/L [S]
- MIC (caspofungin): 0.12 mg/L [S]
- MIC (itraconazole): 0.25 mg/L [S]
- MIC (anidulafungin): 0.03 mg/L [S]
- MIC (voriconazole): 0.12 mg/L [S]
- MIC (fluconazole): 1 mg/L [S]

Test System: Candida tropicalis isolate 58 (ERG11 copies: 2, Erg11p: no key change)
- MIC (micafungin): 0.03 mg/L [S]
- MIC (posaconazole): 0.5 mg/L [R]
- MIC (flucytosine): ≤ 0.06 mg/L [S]
- MIC (amphotericin B): 0.5 mg/L [S]
- MIC (caspofungin): 0.06 mg/L [S]
- MIC (itraconazole): 0.5 mg/L [S]
- MIC (anidulafungin): 0.12 mg/L [S]
- MIC (voriconazole): 0.25 µg/mL
- MIC (fluconazole): 2 mg/L [S]

Test System: Candida tropicalis isolate 59 (ERG11 copies: 2, Erg11p: no key change)
- MIC (micafungin): 0.03 mg/L [S]
- MIC (posaconazole): 0.06 mg/L [S]
- MIC (flucytosine): ≤ 0.06 mg/L [S]
- MIC (amphotericin B): 0.5 mg/L [S]
- MIC (caspofungin): 0.06 mg/L [S]
- MIC (itraconazole): 0.06 mg/L [S]
- MIC (anidulafungin): 0.12 mg/L [S]
- MIC (voriconazole): 0.06 mg/L [S]
- MIC (fluconazole): 2 mg/L [S]

Test System: Candida tropicalis isolate 60 (ERG11 copies: 2, Erg11p: no key change)
- MIC (micafungin): 0.015 mg/L [S]
- MIC (posaconazole): 0.12 mg/L [S]
- MIC (flucytosine): 0.12 mg/L [S]
- MIC (amphotericin B): 1 mg/L [S]
- MIC (caspofungin): 0.06 mg/L [S]
- MIC (itraconazole): 0.12 mg/L [S]
- MIC (anidulafungin): 0.06 mg/L [S]
- MIC (voriconazole): 0.06 mg/L [S]
- MIC (fluconazole): 2 mg/L [S]

Test System: Candida tropicalis isolate 61 (ERG11 copies: 2, Erg11p: no key change)
- MIC (micafungin): 0.03 mg/L [S]
- MIC (posaconazole): 0.12 mg/L [S]
- MIC (flucytosine): 0.25 mg/L [S]
- MIC (amphotericin B): 1 mg/L [S]
- MIC (caspofungin): 0.03 mg/L [S]
- MIC (itraconazole): 0.12 mg/L [S]
- MIC (anidulafungin): 0.03 mg/L [S]
- MIC (voriconazole): 0.12 mg/L [S]
- MIC (fluconazole): 2 mg/L [S]

Test System: Candida tropicalis isolate 62 (ERG11 copies: 2, Erg11p: no key change)
- MIC (micafungin): 0.03 mg/L [S]
- MIC (posaconazole): 0.25 mg/L [S]
- MIC (flucytosine): ≤ 0.06 mg/L [S]
- MIC (amphotericin B): 1 mg/L [S]
- MIC (caspofungin): 0.03 mg/L [S]
- MIC (itraconazole): 0.25 mg/L [S]
- MIC (anidulafungin): ≤ 0.015 mg/L [S]
- MIC (voriconazole): 0.12 mg/L [S]
- MIC (fluconazole): 2 mg/L [S]

Test System: Candida tropicalis isolate 63 (ERG11 copies: 2, Erg11p: no key change)
- MIC (micafungin): 0.06 mg/L [S]
- MIC (posaconazole): 0.12 mg/L [S]
- MIC (flucytosine): ≤ 0.06 mg/L [S]
- MIC (amphotericin B): 0.25 mg/L [S]
- MIC (caspofungin): 0.25 mg/L [S]
- MIC (itraconazole): 0.12 mg/L [S]
- MIC (anidulafungin): 0.25 mg/L [S]
- MIC (voriconazole): 0.06 mg/L [S]
- MIC (fluconazole): 1 mg/L [S]

Test System: Candida tropicalis isolate 64 (ERG11 copies: 2, Erg11p: no key change)
- MIC (micafungin): 0.03 mg/L [S]
- MIC (posaconazole): 0.06 mg/L [S]
- MIC (flucytosine): ≤ 0.06 mg/L [S]
- MIC (amphotericin B): 0.5 mg/L [S]
- MIC (caspofungin): 0.03 mg/L [S]
- MIC (itraconazole): 0.06 mg/L [S]
- MIC (anidulafungin): ≤ 0.015 mg/L [S]
- MIC (voriconazole): 0.03 mg/L [S]
- MIC (fluconazole): 1 mg/L [S]

Test System: Candida tropicalis isolate 65 (ERG11 copies: 2, Erg11p: no key change)
- MIC (micafungin): 0.03 mg/L [S]
- MIC (posaconazole): 0.25 mg/L [S]
- MIC (flucytosine): ≤ 0.06 mg/L [S]
- MIC (amphotericin B): 0.5 mg/L [S]
- MIC (caspofungin): 0.03 mg/L [S]
- MIC (itraconazole): 0.25 mg/L [S]
- MIC (anidulafungin): 0.03 mg/L [S]
- MIC (voriconazole): 0.06 mg/L [S]
- MIC (fluconazole): 2 mg/L [S]

Test System: Candida tropicalis isolate 66 (ERG11 copies: 2, Erg11p: Y132F, S154F (heterozygous))
- MIC (micafungin): 0.03 mg/L [S]
- MIC (posaconazole): 0.5 mg/L [R]
- MIC (flucytosine): ≤ 0.06 mg/L [S]
- MIC (amphotericin B): 1 mg/L [S]
- MIC (caspofungin): 0.03 mg/L [S]
- MIC (itraconazole): 0.5 mg/L [S]
- MIC (anidulafungin): 0.03 mg/L [S]
- MIC (voriconazole): 2 mg/L [R]
- MIC (fluconazole): 32 mg/L [R]

Test System: Candida tropicalis isolate 67 (ERG11 copies: 2, Erg11p: no key change)
- MIC (micafungin): 0.06 mg/L [S]
- MIC (posaconazole): 0.06 mg/L [S]
- MIC (flucytosine): ≤ 0.06 mg/L [S]
- MIC (amphotericin B): 1 mg/L [S]
- MIC (caspofungin): 0.06 mg/L [S]
- MIC (itraconazole): 0.12 mg/L [S]
- MIC (anidulafungin): 0.12 mg/L [S]
- MIC (voriconazole): 0.03 mg/L [S]
- MIC (fluconazole): 1 mg/L [S]

Test System: Candida tropicalis isolate 68 (ERG11 copies: 2, Erg11p: no key change)
- MIC (micafungin): 0.03 mg/L [S]
- MIC (posaconazole): 0.25 mg/L [S]
- MIC (flucytosine): ≤ 0.06 mg/L [S]
- MIC (amphotericin B): 0.5 mg/L [S]
- MIC (caspofungin): 0.03 mg/L [S]
- MIC (itraconazole): 0.25 mg/L [S]
- MIC (anidulafungin): 0.12 mg/L [S]
- MIC (voriconazole): 0.12 mg/L [S]
- MIC (fluconazole): 2 mg/L [S]
